# Measurements as given in PubChem BioAssay AID2147 (National Center for Advancing Translational Sciences (NCATS), 2009).
# Values joined by “and” are separate entries in the source; they are usually repeats but may differ in a detail not shown here. Equal values may be shown once. About 3,600 (1.6%) of roughly 230,000 compounds were called active. Inconclusive results, whose numbers are uncertain, are shown with a selection of clear calls. Calls follow the shape of the dose curve; as a rule, active = well fitted inhibition curve with a large enough effect (not every such curve was filed as active); inconclusive = small, poorly fitted or top-dose-only effect, or another doubt; inactive = no such curve, though single readings can be large or run the other way. Potencies beside an inconclusive call are fits to weak or partial responses and may not hold up.
# Target: Lysine-specific demethylase 4E (Homo sapiens) (UniProt B2RXH2)
# Chain of UniProt B2RXH2 (B2RXH2 whole entry, looked up, the tested form may be a part): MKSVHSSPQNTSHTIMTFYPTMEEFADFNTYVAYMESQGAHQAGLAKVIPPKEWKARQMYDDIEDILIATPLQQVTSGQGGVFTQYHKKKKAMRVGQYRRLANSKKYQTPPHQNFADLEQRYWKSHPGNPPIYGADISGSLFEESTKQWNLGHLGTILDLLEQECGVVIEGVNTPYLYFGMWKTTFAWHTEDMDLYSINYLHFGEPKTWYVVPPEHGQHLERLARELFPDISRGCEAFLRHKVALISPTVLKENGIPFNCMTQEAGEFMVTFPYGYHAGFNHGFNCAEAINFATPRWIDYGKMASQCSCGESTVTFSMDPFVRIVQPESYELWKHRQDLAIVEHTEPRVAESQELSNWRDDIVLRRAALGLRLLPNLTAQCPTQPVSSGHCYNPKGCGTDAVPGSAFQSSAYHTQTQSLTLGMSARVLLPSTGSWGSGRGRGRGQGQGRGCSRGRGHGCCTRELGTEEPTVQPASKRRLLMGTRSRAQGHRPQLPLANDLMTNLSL
# Experiment: qHTS Assay for Inhibitors of Human Jumonji Domain Containing 2E (JMJD2E)
# Conditions: JMJD2E catalytic domain, FDH-coupled NADH fluorescence (FDH is formaldehyde dehydrogenase); series mostly up to 57.1 µM
# Also: nearly all actives have a fitted effect of over 50% in size.
# Potency is read from the fitted curve at half-maximal effect; tags tell the direction and shape of the fitted curve.
row,Structure (SMILES),Potency
1,COC(=O)c1sc2nc(SCc3ccccc3C#N)n(N)c(=O)c2c1C,"inconclusive: 4.47 µM [inhibitor, single point]"
2,Cc1ccc(/C(O)=C2\C(=O)C(=O)N(c3cc(C)on3)C2c2cccc(Cl)c2)cc1 (configuration not stated),"inconclusive: 25.1 µM [inhibitor, single point]"
3,CN(C)CCN1C(=O)C(=O)/C(=C(/O)c2ccccc2)C1c1ccccc1F (configuration not stated),"inconclusive: 39.8 µM [inhibitor, single point]"
4,O=C(Cn1ccc2ccccc2c1=O)NCCC(=O)NC1CCN(Cc2ccccc2)CC1,"inconclusive: 39.8 µM [inhibitor, single point]"
5,Cn1ccnc1SCC(=O)c1cc2ccccc2o1,inactive
6,Cc1cc(N)n2ncc(-c3ccc(F)cc3)c2n1,"inconclusive: 31.6 µM [inhibitor, single point]"
7,COc1nc(-c2ccccc2)ccc1-c1noc(COc2ccccc2)n1,"inconclusive: 35.5 µM [inhibitor, partial curve]"
8,COc1ccc(C(=O)Oc2ccc(F)cc2C(=O)/C=C/c2ccc(OC)c(OC)c2)cc1,"inconclusive: 39.8 µM [inhibitor, single point]"
9,COc1cccc(C(c2sc3ncnn3c2O)N2CCN(C(=O)c3ccco3)CC2)c1 (configuration not stated),inactive
10,O=C(O)c1sc2ncccc2c1OCc1ccccc1,"inconclusive: 28.2 µM [inhibitor, partial curve]"
11,CC(c1ccc(F)cc1)n1c(-c2cccs2)n[nH]c1=S (configuration not stated),"inconclusive: 28.2 µM [inhibitor, partial curve]"
12,Cc1ccc([N+](=O)[O-])cc1N/C=C/C(=O)c1ccco1,inactive
13,Cc1cc(CNC(=O)c2ccc3c(c2)OCO3)c2ccccc2n1,"inconclusive: 35.5 µM [inhibitor, single point]"
14,O=C(Nc1cccn2ncnc12)c1ccc(Cl)cc1Cl,"inconclusive: 39.8 µM [inhibitor, single point]"
15,CC(=O)c1ccc2c(c1)OCCOCCOCCO2,"inconclusive: 20 µM [inhibitor, partial curve]"
16,COc1cc(OC)c(S(=O)(=O)NC(C)C)cc1S(=O)(=O)NC(C)C,inactive
17,COc1cc2nc(N3CCN(C(=O)C4COc5ccccc5O4)CC3)nc(N)c2cc1OC (configuration not stated),"inconclusive: 22.4 µM [inhibitor, partial curve]"
18,Cc1cccc(C2CC(c3ccccc3)Nc3nc(N)nn32)c1 (configuration not stated),"inconclusive: 39.8 µM [inhibitor, single point]"
19,O=C(c1ccco1)N1CCN(CC2CC3C=CC2C3)CC1 (configuration not stated),"inconclusive: 28.2 µM [inhibitor, single point]"
20,CN(C)CCCN(C(=O)c1sc2ccccc2c1Cl)c1nc2c(F)cccc2s1,inactive
21,Cc1nn(C(C)C(=O)NCc2ccccc2Cl)c(=O)c2c1sc1ccccc12 (configuration not stated),"inconclusive: 28.2 µM [inhibitor, single point]"
22,N#CC(C#N)=Cc1cc2ccccc2nc1N1CCCCC1,inactive
23,NCC(=O)Nc1ccc(Cl)cc1C(=O)c1ccc[nH]1,"inconclusive: 25.1 µM [inhibitor, partial curve]"
24,O=C(O)C1CC=CCC1C(=O)NCc1cn2ccccc2n1 (configuration not stated),"inconclusive: 35.5 µM [inhibitor, partial curve]"

row,Structure (SMILES),Potency
1,Cc1ccc(S(=O)(=O)N2CC3CCCC2C3)cc1 (configuration not stated),inactive
2,Cc1cccc(-c2nnc3n2N=C(c2ccccc2)CS3)c1,inactive
3,COc1ccccc1CNc1ncncc1-c1ccoc1,"inconclusive: 39.8 µM [inhibitor, single point]"
4,O=C(CSc1nnc2ccccn12)N1CCOCC1,"inconclusive: 35.5 µM [inhibitor, single point]"
5,O=C1CCCc2c1cc(C(=O)O)c(=O)n2-c1ccccc1,inactive
6,Cc1cc(/C=C2\SC(=S)N(C)C2=O)c(C)n1-c1cccc(O)c1,inactive
7,O=c1c(O)c(-c2ccc(O)cc2)oc2cc(O)cc(O)c12,"inconclusive: 15.8 µM [inhibitor, single point] and inconclusive: 39.8 µM [inhibitor, single point]"
8,N#CC1=C(N)NC(SCc2ccccc2)=C(C#N)C12CCCCC2,inactive
9,CC(CCc1ccco1)NC(=O)c1cc2c(-c3ccccc3F)nn(C)c2s1 (configuration not stated),"inconclusive: 31.6 µM [inhibitor, single point]"
10,CC1=C(/C=C/C(=O)O)C(C)(C)CCC1,inactive
11,CCOc1ccccc1N1CCN(S(=O)(=O)c2ccc3c4c(cccc24)C(=O)N3)CC1,inactive
12,COc1ccc(C2=NN(c3ccccc3)C(=O)/C2=C\c2ccc(O)c(OC)c2)cc1,"inconclusive: 2.82 µM [inhibitor, full curve, poor fit]"
13,Cc1ccsc1/C=N/N=C1\C(=O)Nc2ccccc21,inactive
14,Cc1ccn2c(-c3csc(NCc4ccccc4)n3)c(C)nc2c1,"inconclusive: 22.4 µM [inhibitor, partial curve]"
15,CCOc1ccccc1CNC(=O)c1cc2oc3ccccc3c2n1CC,"inconclusive: 35.5 µM [inhibitor, partial curve]"
16,Cc1cc(C)c2c3c(sc2n1)C(c1ccccc1)C(C#N)=C(N)O3 (configuration not stated),"inconclusive: 35.5 µM [inhibitor, partial curve]"
17,Cc1cc(C(=O)Nc2nc3ccc(Cl)cc3s2)nn1C,"inconclusive: 35.5 µM [inhibitor, single point]"
18,CN(C)c1oc(-c2ccccc2F)nc1C#N,"inconclusive: 28.2 µM [inhibitor, partial curve]"
19,COC(=O)Cn1c(CCC(=O)O)ccc1-c1ccccc1,"inconclusive: 31.6 µM [inhibitor, partial curve]"
20,CC(=O)Nc1ccc(-c2ccnc(-c3ccc(NC(C)=O)cc3)n2)cc1,"inconclusive: 3.55 µM [inhibitor, single point]"
21,c1ccc2c(c1)CCN2CCN1CCc2ccccc21,inactive
22,Cc1c(N)cc(N)cc1C(=O)O,"inconclusive: 31.6 µM [inhibitor, single point]"
23,CCOC(=O)c1sc(Nc2ccc(F)cc2)nc1C,"inconclusive: 39.8 µM [inhibitor, partial curve]"
